This is one part of the list. At the low end of the ranking, values are background and their order means little.

This test concerns the target GST-SBP-SLBP (stem-loop binding protein) (UniProt Q14493). Nature of the test: targeted RNA Bind-n-Seq.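 Further: DESeq read counts versus GST-SBP nonspecific binding control pulldown.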 The following applies: RBNS binding buffer: 25 mM Tris pH 7.5, 150 mM KCl, 3 mM MgCl2, 0.1% Tween, 0.5 mg/mL BSA, 1 mM DTT; 27 nM protein, 750 pM RNA pool; temperature not stated; high values mean tight binding.
As to “GGUCACGUCUCAAUCAACUCUUCUUCCAGGGAAAGCCCUGGUUAUGUCAACAGCUCGCAGUCAAG”, the binding signal (log2 fold change) is -0.186. As for “GGUCACGUCUCAAUCAACUCAUCCCCAGGAGUUUUCUCCUGUAUUUUCAACAGCUCGCAGUCAAG”, the binding signal (log2 fold change) is -0.0579. As for “GGUCACGUCUCAAUCAACUCAUCCCCAGGAGUUUCCUCCUGCAAUUUCAACAGCUCGCAGUCAAG”, the binding signal (log2 fold change) was -0.0196. Under “GGUCACGUCUCAAUCAACUCUAUUUCCAGGGAAACCCCUGGUUAAUUCAACAGCUCGCAGUCAAG” stands 0.0432.

As to “GGUCACGUCUCAAUCAACUCUUUCCCCAGGGAAACCCCUGGUAAAUUCAACAGCUCGCAGUCAAG”, the binding signal (log2 fold change) stood at 0.0137. Turning to “GGUCACGUCUCAAUCAACUCAAUCCCAGGAGUUUUCUCCUGUUUAUUCAACAGCUCGCAGUCAAG”, the binding signal (log2 fold change) is -0.116. Regarding “GGUCACGUCUCAAUCAACUCAUUUUCCAGGGAAAACCCUGGUUUUUUCAACAGCUCGCAGUCAAG”, the binding signal (log2 fold change) is -0.131.

On to “GGUCACGUCUCAAUCAACUCUUUCUCAGGAGUUUCCUCCUGUUUACUCAACAGCUCGCAGUCAAG”, for which the binding signal (log2 fold change) is 0.312. Under “GGUCACGUCUCAAUCAACUCAUCGCCCAGGGAAAGCCCUGGUUUAUUCAACAGCUCGCAGUCAAG” stands -0.0252; under “GGUCACGUCUCAAUCAACUCUCAAGAGGGGGGGAAAACCCCUUUGCCCUCAACCUCAACAGCUCGCAGUCAAG”, -0.0326; under “GGUCACGUCUCAAUCAACUCUUCCUCCAGGGAAAGCCCUGGUUAACUCAACAGCUCGCAGUCAAG”, -0.0572.

With “GGUCACGUCUCAAUCAACUCUUCCCCAGGAGUUUACUCCUGUUAUUUCAACAGCUCGCAGUCAAG”, the binding signal (log2 fold change) was -0.137. For the sequence “GGUCACGUCUCAAUCAACUCAAUUUCCAGGGAAAUCCCUGGUAUUUUCAACAGCUCGCAGUCAAG”, the binding signal (log2 fold change) is 0.0919.

On to “GGUCACGUCUCAAUCAACUCAAAAGAGGGGGGGAAAACCCCUUUGCCCUCAAAUUCAACAGCUCGCAGUCAAG”, for which the binding signal (log2 fold change) was -0.134. For the sequence “GGUCACGUCUCAAUCAACUCUAUUCCAGGAGUUUUCUCCUGCUUUCUCAACAGCUCGCAGUCAAG”, the binding signal (log2 fold change) was -0.109.

For “GGUCACGUCUCAAUCAACUCUUUCUCCAGGGAAACCCCUGGCUAAUUCAACAGCUCGCAGUCAAG”, the binding signal (log2 fold change) is -0.205. “GGUCACGUCUCAAUCAACUCCCCAGAGGGGGGGAAAACCCCUUUACCCUCAUUUUCAACAGCUCGCAGUCAAG”: the binding signal (log2 fold change) is -0.201. Under “GGUCACGUCUCAAUCAACUCAUGUCCAGGAGUUUUCUCCUGCUAUCUCAACAGCUCGCAGUCAAG” stands 0.0653; under “GGUCACGUCUCAAUCAACUCUCCCGAGGGGGGGAAAACCCCUUUACCCUCAAAAUCAACAGCUCGCAGUCAAG”, -0.372. Consider “GGUCACGUCUCAAUCAACUCAAUCCCCAGGGAAAGCCCUGGUAUAUUCAACAGCUCGCAGUCAAG”, for which the binding signal (log2 fold change) was 0.0198.

For “GGUCACGUCUCAAUCAACUCUUCCCCCAGGGAAAACCCUGGUAAUCUCAACAGCUCGCAGUCAAG”, the binding signal (log2 fold change) was 0.172.

Values taken from article PMC5892938.
